Experimental data taken from the RNAGym collection of RNA variant scans (doi:10.1093/nar/gkz1192).
Read counts are not given, so values of variants with three or more changes are uncertain.

B1: CPEB3 Ribozyme (parent)
chain: UAACAGGGGGCCACAGCAGAAGCGUUCACGUCGCAGCCCCUGUCAGAUUCUGGUGAAUCUGCGAAUUCUGCUGUAUAUCUC

Variants of: B1
Test: self-cleavage, relative activity (ratio to wild type); higher = more cleavage; in vitro, sequencing
In short: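 Barcoded CPEB3 ribozyme mutants, produced by rounds of error-prone PCR, self-cleaved while being transcribed with T7 RNA polymerase for 5 hours at 37°C and during a subsequent 15 min DNase I step before EDTA was added. Sequencing of template-switched cDNA on Illumina gave cleaved and total reads, and DNA sequencing assigned barcodes to variants. Each variant's relative activity is its cleaved/total read fraction divided by the unmutated ribozyme's fraction, averaged across three batches. A variant needed a minimum of 5 reads.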

Row | Variant | self-cleavage
1 | G16A A45U A65U | 0.37
2 | A15G U31C A57G U58C U69G | 0.04
3 | A15U U31A U58C | 0.19
4 | A15G U26C A57G U58C A64G U72C | 0.23
5 | A15U A57G A77G | 0.49
6 | G16C U69A U76A | 0.06
7 | G16A G46C C59U | 0.07
8 | G16U A28U A56G U69C | 0.14
9 | G16A U54C U58G U76C U80C | 0.12
10 | A15U A35G U41A U69A | 0.14
11 | A15U U41A U51C U76A | 0.27
12 | A15U C62U A65G | 0.23
13 | A15U A20G U41A U49C | 0.23
14 | A15G U31A U51C | 0.66
15 | A15U A20U C34U A45G U60C U66C | 0.05
16 | A15G U41C U69C | 0.26
17 | A15U A56G A65G | 0.19
18 | A15G U41C U48A | 0.18
19 | G16A A28U G33C | 0.06
20 | A15G U49C U74C | 0.31
21 | A15U U67A U80C | 0.5
22 | A15U G33A G52A | 0.2
23 | A15U A20G A21G G36C A45G A57C | 0.06
24 | A15U A18G A28U | 0.12

Row | Variant | self-cleavage
25 | A15U U41A U48C U78C | 0.13
26 | A15G U43C U80C | 0.56
27 | A15U U60A U67C | 0.1
28 | A15U U41G U58C A64G U72C | 0.15
29 | A15G U74A U78A U80C | 1.18
30 | A15G U26A U41C A47G | 0.5
31 | A15U U25C C59U U69C U76A | 0.07
32 | C17A A47G U54A A56G U66C | 0.08
33 | A15G U48C A56G U60C | 0.14
34 | A15G U48C U51C C59A | 0.13
35 | A15U A45G U54C U58G U72C | 0.09
36 | A15U U41C C62U U72A | 0.13
37 | A15G U31A C50A U60C G61A U80C | 0.16
38 | A15U A18U C38G U49C C62A U78A | 0.04
39 | G16U U41A U51C U72C | 0.34
40 | A15G U26A C34A U66C | 0.08
41 | A15U U41A A64G U72A | 0.04
42 | A15U A18G U26A G52A | 0.13
43 | G16A G22U U41A U72C | 0.12
44 | A15G U41C A45U U51C U67A U72C U78C | 0.27
45 | A15U A45C U72A | 0.2
46 | G16A U31C U48A U54C U78C | 0.13
47 | A15U A18G G33C A56G A77G | 0.03
48 | A15U A35G U43A A45G U69C U76G | 0.25

Row | Variant | self-cleavage
49 | A15U U26A A65G A77G | 0.15
50 | A15G U26A C37U A47G A64G U78C | 0.39
51 | A15G U43C U69A | 0.11
52 | A15G U54G A56U U60C | 0.21
53 | G16A A21G U60A | 0.15
54 | A15G U41A A75G | 0.32
55 | A15U A18G U26A A45G | 0.09
56 | G16U U43A U48C A75G | 0.25
57 | A15G U31A A77G | 0.82
58 | A15U U41A U66A C68U | 0.24
59 | G16A A35U U51C G52U U58C U80C | 0.1
60 | A15U U25C G53A U54G A75C | 0.06
61 | A15U C23U C44U U49A U60A | 0.13
62 | A15U A64U A65G U72C | 0.23
63 | G16U U41A U58A | 0.19
64 | A15U A35G U41A A57G A64U U66C | 0.07
65 | A15U G30A U51C | 0.09
66 | G16A U54C A56G | 0.37
67 | G16A C50U A57G G70U U78A | 0.08
68 | A15G U49C U72C C79U | 0.69
69 | A15G U31A C34U U48C A64U U67A U80C | 0.08
70 | A15G U41A A56G U58C | 0.05
71 | G16A U48C U49C C50G U74C | 0
72 | A15U A56G U76G | 0.86

Row | Variant | self-cleavage
73 | A15U A21G A56G U69C | 0.24
74 | C17A A56U U72G U80C | 0.26
75 | A15U A21G U26C U48C A64U A77G | 0.17
76 | A15U U69A U74C A77C | 0.42
77 | A15G U31A U41A U60C G63A U72C | 0.12
78 | A15U A20G U43C U51G U72A | 0.44
79 | A15U A45C U58C | 0.07
80 | G16A U43C U54A | 0.13
81 | G16A C37G C68U | 0.21
82 | G16U C29U U41C U74C | 0.32
83 | A15U A35U U72C A75G | 0.74
84 | A15G U41A G52C A57G | 0.11
85 | A15U A56G U78C | 0.45
86 | A15U C44G A77C | 0.09
87 | A15G U41C U51A U54C | 1.15
88 | A15G U43A U49G | 0.39
89 | C17A A18U G55C | 0.13
90 | A15U A28G U31A U41A | 0.38
91 | A15G U51C A75U U80C | 0.9
92 | A15G U26C A75G | 0.29
93 | A15U A21G A47U | 0.42
94 | A15U G33A U49A U78C | 0.17
95 | A15U G55A A57G | 0.24
96 | A15U C38U U72C | 0.69

Row | Variant | self-cleavage
97 | A15U U58C A64G | 0.19
98 | A15U U51G A65U A75G | 0.23
99 | A15G U51A A56U A57G U76C | 0.21
100 | A15U U25C U26A | 0.31
101 | A15G U31G C38G A65U | 0.11
102 | A15U A35G U41A | 0.32
103 | A15G U69C U74C U80C | 0.19
104 | A15G U31C U41C A47G U67A | 0.17
105 | A15U U54C A64U U78C | 0.14
106 | A15G U49C U76A U78C | 0.24
107 | G16U A28G U54A U58C U66C G70A | 0.05
108 | G16A C37U A56G A64U U74C | 0.15
109 | A15U A20G A28G A35U U41A U43A | 0.43
110 | G16U U25C U66C U72A | 0.06
111 | A15U U41A U49C U51A U67C | 0.11
112 | A15U U67C U69A | 0.1
113 | A15U U25C A64U | 0.2
114 | G16U A35G U69C U78A | 0.37
115 | A15U U31C A35G U60A G70A C71A | 0.4
116 | G16U U58C A77U | 0.22
117 | A15G U67C C68A | 0.26
118 | G16A A18U A28G A57U U67C | 0.06
119 | G16U U25C U69C U72A U78C U80C | 0
120 | A15U A20G A21G U31A | 0.13

Row | Variant | self-cleavage
121 | G16A A18U A20U U31C A35U | 0.05
122 | G16A A20C A64G | 0.07
123 | A15G U43C U78C | 0.39
124 | A15U U43C A47U U60C U69C | 0.18
125 | A15G U26C U51C U76C | 0.48
126 | A15U U26C U31A U43C A65G | 0.07
127 | A15U A18C A35G | 0.49
128 | A15U A18C A35U | 0.32
129 | A15U U26G A28G | 0.09
130 | A15G U41C A45G U60A U72C A75G | 0.97
131 | A15U A18G U49C U60C U67C | 0.07
132 | G16C A28C U67C U74C | 0.08
133 | C17A A28U A35G U69C U74C | 0.16
134 | G16A U49C U58C | 0.1
135 | A15U G42U U80C | 0.07
136 | A15U A35U A45G G55A C62U A65C | 0.37
137 | A15G U43A U69C U74C | 0.21
138 | A15G U41C U51A | 0.93
139 | A15G U76C U78A | 1.13
140 | A15U A21G U43A U48A | 0.09
141 | A15U U54G U58C U78C | 0.08
142 | A15U U26A C34A U66G | 0.18
143 | A15G U43A U54A | 1.05
144 | A15U U43A U48C U67A C68G U80C | 0.1

Row | Variant | self-cleavage
145 | A15U U51G G61U U67C U78C | 0.08
146 | G16C A20U U31A G42U U49C U74C | 0.09
147 | A15G U31C A35C A45U A47G U48C | 0
148 | A15U U54C U76C | 0.68
149 | G16A G19C A20G U43C U58G U80C | 0.19
150 | A15U A18G U69C G70U U78C | 0.1
151 | A15G U31A C40A U78C | 0.16
152 | A15U U31A U51C A64G A75G U78C | 0.1
153 | G16A A21G C32A | 0.25
154 | A15U A28U U41C U67C U72C U80A | 0.1
155 | G16A A20G U49A U78C | 0.12
156 | A15U A20G U51C U69C U76A | 0.17
157 | A15U G30A U54C A64G | 0.06
158 | A15U G30U A45U | 0.15
159 | A15U U25G U26A G33A C38U A57U | 0.07
160 | G16U G30U U51C A57G U58C | 0.05
161 | A15U A20U U58C C68A | 0.06
162 | A15U U74C U80A | 1.26
163 | G16A C23G U54C A56G G70A | 0.06
164 | A15G U26C U43C U49G | 0.21
165 | A15U A45U A77U | 0.33
166 | G16A A18G A56U U80C | 0.21
167 | A15U U76C U80A | 0.72
